Records with an inconclusive call do not appear. The call rests on the fitted dose curve; in most records, active means well fitted curve in the direction sought with a large enough effect; inconclusive means small, poorly fitted or top-dose-only effect, or another doubt; inactive means no such curve, though single readings can be large; an effect the other way counts as inactive or inconclusive. A structure can be active in one record and inactive in another. Certain results were filed several times, with different values. The list is limited to them. An entry can have further records. Values given together are repeats in other runs, samples, wells, individuals or studies. Records carry a tag for their origin. The letters are not those of the source and start again with each entry.
Test: qHTS of pediatric cancer cell lines to identify multiple opportunities for drug repurposing: Primary screen for DAOY cells (AID 1347090); further: nearly all actives have a fitted effect of over 55% in size
Conditions: DAOY medulloblastoma viability, CellTiter-Glo luminescence, 48 h; series mostly up to 46 µM
How it was run: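 Eight- or eleven-point concentration series, 48 h treatment at 37 degrees C in growth media; readout CellTiter-Glo luminescence. Potency and efficacy were taken from the concentration-response curves.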
For `CCOC(=O)[C@H](CCc1ccccc1)N[C@H]1CS[C@H](c2cccs2)CN(CC(=O)O)C1=O`, the Potency was “active: 2.96 µM [sample A] and inactive [sample B]”.
For `COc1cc2c(Nc3ccc(Br)cc3F)ncnc2cc1OCC1CCN(C)CC1`, the Potency was “active: 18.7 µM [sample A] and inactive [sample B]”.
For `COc1ccc(-c2ccc3cc(C(=O)O)ccc3c2)cc1C12CC3CC(CC(C3)C1)C2`, the Potency was “inactive [sample A] and active: 7.43 µM [sample B]”.
For `CC(C(=O)O)c1ccc2c(c1)CC(=O)c1ccccc1S2` (stereo not drawn), the Potency was “active: 46.9 nM [sample A] and inactive [sample B]”.
For `O=c1cc(O)c(Cl)c[nH]1`, the Potency was “active: 11.8 µM [sample A] and inactive [sample B]”.
For `Cc1c(-c2ccc(O)cc2)n(Cc2ccc(OCCN3CCCCCC3)cc2)c2ccc(O)cc12`, the Potency was “inactive [sample A] and active: 26.6 µM [sample B]”.
In the case of `COc1ccc(C(=O)CC(=O)c2ccc(C(C)(C)C)cc2)cc1`, the Potency is reported as “inactive [sample A] and active: 3.72 µM [sample B]”.
In the case of `Cc1nnc(NS(=O)(=O)c2ccc(N)cc2)s1`, the Potency is reported as “inactive [sample A] and active: 3.72 µM [sample B]”.

Test: qHTS of pediatric cancer cell lines to identify multiple opportunities for drug repurposing: Primary screen for SJ-GBM2 cells (AID 1347091)
Conditions: SJ-GBM2 viability, CellTiter-Glo luminescence, 48 h; series mostly up to 46 µM
From the text: Drug repurposing or repositioning has been offered as a strategy for drug development in oncology programs. This approach has special potential for childhood cancers and other rare or orphan diseases, where the expected return on new drug development has been a disincentive to pharmaceuticals.
In this project we exploit the poly-pharmacology of drugs to discover new indications via phenotypic screening of a panel of 19 well-characterized cell lines derived from solid tumors seen in children and adolescents. The goal is to identify approved drugs with previously unrecognized anticancer properties that has the potential to reveal new mechanisms and biological processes involved in carcinogenesis or drug resistance. We employed a titration-based paradigm (quantitative high-throughput screening or qHTS), where all compounds were tested at multiple concentrations for their effect on cell viability. Concentration-response curves (CRCs) were derived directly from the primary screen, and both potency and efficacy values were used to identify compounds with robust bioactivity profiles. We screened the NIH Chemical Genomics Center (NCGC) Pharmaceutical Collection (NPC) and Mechanism Interrogation Plate (MIPE) small molecule collections of approved and investigational compounds against these cell lines; and measured metabolically active cells after 48 hours of compound treatment as a proxy for cell viability.
Assay Submitter: Nathalia J. Martinez, National Center for Advancing Translational Sciences, National Institutes of Health, Rockville, MD, USA; email: natalia.martinez@nih.gov
[1] Shen, M et al. Quantitative high-throughput phenotypic screening of pediatric cancer cell lines identifies multiple opportunities for drug repurposing. Oncotarget 2017 Dec 19;9(4):4758-4772. PMID 29435139.
The cells were obtained from University of North Carolina (UNC), Pediatric Preclinical Testing Program (PPT), and Coriell Institute (CI).
qHTS cell viability assay:
Cells were assayed in growth media at a density of 500-1,000 cells/well. Five microliters of cells were dispensed into 1,536-well, white, solid-bottom, TC-treated plates (Greiner Bio One) using a multidrop dispenser and incubated at 37 degrees C, 5% CO2, under a humidified atmosphere for 5 hours. Twenty-three nanoliters of compounds and controls (neutral control DMSO or positive control bortezomib at final concentration of 2.3 µM) were subsequently transferred by Kalypsys pintool. For primary screens, the MIPE collection was tested at 11-point dilutions (final concentrations range from 0.78 nM to 46 µM) and the NPC collection at 8-point dilutions (final concentrations range from 0.59 nM to 46 µM). Compounds tested in follow-up screens were assayed at 11-point dilutions. Cells were incubated for 48 hours, followed by addition of 3 uL of CellTiter-Glo (Promega). After a 15 min incubation at room temperature, samples were analyzed for luminescence intensity using a ViewLux High-throughput CCD imager equipped with clear filters.
With `CCOC(=O)[C@H](CCc1ccccc1)N[C@H]1CS[C@H](c2cccs2)CN(CC(=O)O)C1=O` the Potency was “active: 1.66 µM [sample A] and inactive [sample B]”.
For `CC(C)Cn1cnc2c(N)nc3ccccc3c21`, the Potency was “inactive [sample A] and active: 18.7 µM [sample B]”.
In the case of `Clc1ccccc1CN1CCc2sccc2C1`, the Potency is reported as “active: 3.72 µM [sample A] and inactive [sample B]”.
With `COc1ccc(C(=O)CC(=O)c2ccc(C(C)(C)C)cc2)cc1` the Potency was “inactive [sample A] and active: 6.62 µM [sample B]”.
For `Cc1nnc(NS(=O)(=O)c2ccc(N)cc2)s1`, the Potency was “inactive [sample A] and active: 5.9 µM [sample B]”.

From PubChem BioAssay (NCATS)
Potency means the concentration at half of the fitted maximal effect.
